One assay has as its system HSkMC. In words: cytotoxicity call (relative viability < 0.9). Conditions: 10 µM.
The subject of another assay is HepG2. Briefly: cytotoxicity call (relative viability < 0.9). Conditions: 10 µM.
The test system of the next assay is S. aureus RN4220. In words: growth inhibition call (relative growth <= 0.2). Conditions: 50 µM.

Some of the results follow.

For `COc1ccc(CN(C)C[C@@H]2OCCCC[C@@H](C)Oc3ccc(NC(=O)Cc4ccccc4)cc3C(=O)N([C@@H](C)CO)C[C@H]2C)cc1`, the cytotoxicity call in the assay with HSkMC and with HepG2 was “inactive” each time. The growth inhibition call in the assay on S. aureus RN4220 is “inactive”.

`CC(=O)N1CCc2c(sc(N)c2C(N)=O)C1`: the cytotoxicity call in the assay with HSkMC and in the assay on HepG2 was “inactive” each time. In addition, the growth inhibition call in the assay with S. aureus RN4220 is “inactive”.

Consider `C[C@@H]1CN([C@@H](C)CO)C(=O)Cc2cc(NC(=O)C3CC3)ccc2O[C@@H]1CN(C)S(=O)(=O)c1ccccc1`, for which the cytotoxicity call with HSkMC and with HepG2 was “inactive” throughout. In the assay on S. aureus RN4220, the growth inhibition call was “inactive”.

Take `C[C@H](CO)N1C[C@H](C)[C@H](CN(C)C(=O)Nc2cccc3ccccc23)Oc2ccc(NC(=O)Nc3cccc4ccccc34)cc2CC1=O`: the cytotoxicity call in the assay with HSkMC and in the assay with HepG2 was “inactive” throughout. The growth inhibition call in the assay on S. aureus RN4220 was “inactive”.

On to `COc1ccc(NC(=O)Nc2ccc3c(c2)C(=O)N([C@@H](C)CO)C[C@H](C)[C@@H](CN(C)C(=O)Nc2cccc4ccccc24)O3)cc1`, for which the cytotoxicity call in the assay with HSkMC and in the assay on HepG2 was “inactive” throughout. Further, the growth inhibition call in the assay with S. aureus RN4220 is “inactive”.

As to `Cc1noc(C)c1NC(=O)N(C)C[C@H]1Oc2ccc(NS(C)(=O)=O)cc2CC(=O)N([C@@H](C)CO)C[C@H]1C`, the cytotoxicity call with HSkMC and in the assay on HepG2 was “inactive” in each case. In addition, the growth inhibition call in the assay with S. aureus RN4220 was “inactive”.

Regarding `Cc1noc(C)c1S(=O)(=O)Nc1cccc2c1O[C@@H](CN(C)Cc1ccc3c(c1)OCO3)[C@@H](C)CN([C@@H](C)CO)C2=O`, the cytotoxicity call in the assay on HSkMC and in the assay on HepG2 was “inactive” each time. In the assay on S. aureus RN4220, the growth inhibition call is “inactive”.

For the compound `COc1ccc([C@@H]([C@H](Cc2ccccc2)OC(C)=O)N2Cc3c(noc3[C@@H](O)c3ccccc3)[C@@H]2Cc2ccccc2)cc1`, the cytotoxicity call in the assay with HSkMC and in the assay with HepG2 was “inactive” throughout. Further, the growth inhibition call in the assay on S. aureus RN4220 was “inactive”.

Take `C[C@@H]1CCCCO[C@@H](CN(C)C)[C@@H](C)CN([C@H](C)CO)C(=O)c2cc(NC(=O)Nc3ccc(C(F)(F)F)cc3)ccc2O1`: the cytotoxicity call in the assay on HSkMC was “inactive”. The cytotoxicity call with HepG2 was “active”. Moreover, the growth inhibition call with S. aureus RN4220 was “inactive”.

For `Fc1ccccc1-c1nc2ccn(Cc3ccc(-c4ccc(C(F)(F)F)cc4C(F)(F)F)nn3)cc-2n1`, the cytotoxicity call with HSkMC and in the assay with HepG2 was “active” throughout. For the same compound, the growth inhibition call with S. aureus RN4220 was “inactive”.

Take `COc1ccc(CN(C)C[C@H]2Oc3c(NC(=O)c4cc(C)nn4C)cccc3C(=O)N([C@@H](C)CO)C[C@@H]2C)cc1`: the cytotoxicity call in the assay on HSkMC and in the assay on HepG2 was “inactive” throughout. Moreover, in the assay on S. aureus RN4220, the growth inhibition call was “inactive”.

Take `C[C@H]1CN([C@@H](C)CO)C(=O)c2cc(NC(=O)CCC(F)(F)F)ccc2O[C@H]1CN(C)S(=O)(=O)c1cn(C)cn1`: the cytotoxicity call in the assay with HSkMC and in the assay with HepG2 was “inactive” throughout. Moreover, the growth inhibition call in the assay with S. aureus RN4220 was “inactive”.

For the compound `Cl.Fc1ccc(C2CCNCC2COc2ccc3c(c2)OCO3)cc1` (centres undefined), the cytotoxicity call with HSkMC and in the assay with HepG2 was “inactive” in each case. The growth inhibition call in the assay on S. aureus RN4220 was “inactive”.

With `C[C@@H]1CN([C@H](C)CO)C(=O)c2cc(NC(=O)Cc3ccccc3)ccc2O[C@@H](C)CCCCO[C@H]1CN(C)Cc1ccncc1`, the cytotoxicity call with HSkMC and in the assay with HepG2 was “inactive” in each case. Moreover, in the assay with S. aureus RN4220, the growth inhibition call was “inactive”.

With `CC(C)NC(=O)Nc1ccc2c(c1)C(=O)N([C@@H](C)CO)C[C@H](C)[C@H](CN(C)S(=O)(=O)c1cn(C)cn1)O2`, the cytotoxicity call in the assay on HSkMC and in the assay with HepG2 was “inactive” in each case. Also, in the assay on S. aureus RN4220, the growth inhibition call was “inactive”.

In the case of `Cc1noc(C)c1NC(=O)N(C)C[C@@H]1Oc2ccc(NS(=O)(=O)c3cccs3)cc2CC(=O)N([C@@H](C)CO)C[C@H]1C`, the cytotoxicity call in the assay on HSkMC and in the assay with HepG2 was “inactive” each time. Also, the growth inhibition call with S. aureus RN4220 is “inactive”.

As for `C[C@H](CO)N1C[C@H](C)[C@@H](CN(C)C(=O)c2ccncc2)Oc2ncc(-c3ccc(C(=O)N(C)C)cc3)cc2C1=O`, the cytotoxicity call in the assay with HSkMC and in the assay with HepG2 was “inactive” throughout. In addition, the growth inhibition call in the assay on S. aureus RN4220 is “inactive”.

As for `CC(C)NC(=O)Nc1ccc2c(c1)C(=O)N([C@@H](C)CO)C[C@H](C)[C@@H](CN(C)S(C)(=O)=O)OCCCC[C@H](C)O2`, the cytotoxicity call in the assay with HSkMC and in the assay with HepG2 was “inactive” in each case. Moreover, the growth inhibition call in the assay with S. aureus RN4220 is “inactive”.

Turning to `O=C(C[C@@H]1C/C=C/CCC(=O)O[C@H](c2ccccc2)CNC1=O)NCc1ccc(Cl)c(C(F)(F)F)c1`, the cytotoxicity call in the assay with HSkMC and with HepG2 was “inactive” each time. Further, the growth inhibition call in the assay with S. aureus RN4220 is “inactive”.

Consider `C[C@@H]1CN([C@H](C)CO)S(=O)(=O)c2ccc(C#Cc3ccncc3)cc2O[C@H]1CN(C)S(=O)(=O)c1ccc(F)cc1`, for which the cytotoxicity call in the assay with HSkMC is “inactive”. Further, the cytotoxicity call in the assay on HepG2 is “active”. In the assay on S. aureus RN4220, the growth inhibition call was “inactive”.

`C[C@H](CO)N1C[C@H](C)[C@@H](CN(C)C(=O)Nc2ccc3c(c2)OCO3)OCCCC[C@H](C)Oc2ccc(NS(=O)(=O)c3ccc(Cl)cc3)cc2C1=O`: the cytotoxicity call in the assay with HSkMC and with HepG2 was “inactive” in each case. The growth inhibition call in the assay on S. aureus RN4220 was “inactive”.

For the compound `C[C@@H]1CN([C@@H](C)CO)C(=O)c2cccc(NC(=O)NC3CCCCC3)c2O[C@H]1CN(C)Cc1ccc(C(F)(F)F)cc1`, the cytotoxicity call in the assay with HSkMC and with HepG2 was “inactive” in each case. Also, in the assay with S. aureus RN4220, the growth inhibition call is “inactive”.

Take `Cc1noc(C)c1NC(=O)N[C@H]1CC[C@@H](CC(=O)N2CCN(C)CC2)O[C@@H]1CO`: the cytotoxicity call in the assay with HSkMC and with HepG2 was “inactive” in each case. Moreover, in the assay with S. aureus RN4220, the growth inhibition call is “inactive”.

On to `C[C@@H]1CN([C@@H](C)CO)S(=O)(=O)c2ccc(C#Cc3ccncc3)cc2O[C@@H]1CN(C)C(=O)Nc1ccc2c(c1)OCO2`, for which the cytotoxicity call in the assay on HSkMC was “inactive”. Besides, the cytotoxicity call with HepG2 is “active”. Besides, the growth inhibition call in the assay on S. aureus RN4220 was “inactive”.

As to `C[C@@H]1CN([C@@H](C)CO)S(=O)(=O)c2ccc(-c3cccc(C#N)c3)cc2O[C@@H]1CN(C)C(=O)c1ccncc1`, the cytotoxicity call with HSkMC and in the assay with HepG2 was “inactive” throughout. Moreover, the growth inhibition call with S. aureus RN4220 was “inactive”.

Take `C[C@@H]1CCCCO[C@@H](CN(C)C(=O)c2ccccc2)[C@@H](C)CN([C@@H](C)CO)C(=O)c2cc(NC(=O)Nc3ccc(F)cc3)ccc2O1`: the cytotoxicity call with HSkMC and with HepG2 was “inactive” in each case. The growth inhibition call in the assay on S. aureus RN4220 was “inactive”.

As for `CN(C)CCN1CC2(CCN(C(=O)c3cnccn3)CC2)OCC1=O`, the cytotoxicity call in the assay on HSkMC (human skeletal muscle cells) and with HepG2 was “inactive” each time. Also, the growth inhibition call in the assay with S. aureus RN4220 is “inactive”.

In the case of `C[C@@H]1CCCCO[C@H](CN(C)Cc2ccc(C(F)(F)F)cc2)[C@@H](C)CN([C@@H](C)CO)C(=O)c2cc(NS(=O)(=O)c3ccccc3)ccc2O1`, the cytotoxicity call with HSkMC and in the assay with HepG2 was “inactive” each time. The growth inhibition call in the assay with S. aureus RN4220 is “inactive”.
